# PubChem BioAssay (Tox21)
# This list was built around the results that the source calls inconclusive (neither active nor inactive); the mix of calls is not that of the screen. For part of these data: A potency beside an inconclusive call is a rough fit, not a confirmed value. Active and inactive are the calls of the source. Unless noted, calls come from the whole dose curve; as a rule, active = well fitted curve in the direction sought with a large enough effect in the repeat runs; inconclusive = weak or mixed curves; inactive = no such curve, though single readings can be large; an effect the other way counts as inactive or inconclusive.
# Experiments:
# [1] = qHTS assay for small molecule agonists of the p53 signaling pathway (AID 651631; calls by dose curve; note: nearly all actives have a fitted effect of over 15% in size; note: potency is the fitted concentration of half-maximal effect); conditions: HCT-116 p53RE-bla reporter, beta-lactamase FRET ratio, 16 h; activation: at 73.3 µM (top of the series) unless noted
# Method in brief: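 HCT-116 cells carrying a beta-lactamase reporter under p53 response elements were dosed with compound for 16 h at 37 °C. LiveBLAzer B/G FRET substrate was then added for 2 h at room temperature, and fluorescence intensity was read to detect pathway agonism.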
# [2] = qHTS assay for small molecule disruptors of the mitochondrial membrane potential (AID 720635); conditions: HepG2 mitochondrial membrane potential, Mito-MPS dye ratio; ratio activity, negative = MMP loss: at 83.2 µM (top of the series) unless noted; note: potency is the fitted concentration of half-maximal effect; for ratio activity, negative = MMP loss: % is set by controls: 0 for no effect and ±100 for the full control effect
# Method in brief: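 Mitochondrial membrane potential tracked with Mito-MPS dye, red aggregates (ex 540/em 590 nm) against green monomers (ex 490/em 535 nm). Compound treatment 1 hr at 37C, dye 30 min in HepG2.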
# [3] = qHTS assay for identifying genotoxic compounds that show differential cytotoxicity against isogenic chicken DT40 cell lines with known DNA damage response pathways - wild type cell line (AID 743012); conditions: DT40 wild type chicken cells viability, CellTiter-Glo, 40 h; activity change, negative = cytotoxicity: at 68.4 µM (top of the series) unless noted; note: % is set by controls: 0 for no effect and ±100 for the full control effect; nearly all actives have a fitted effect of over 60% in size
# Method in brief: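 Wild-type DT40 cells (300/well) exposed to compounds for 40 hours at 37 C/5% CO2. Viability read by CellTiter-Glo luminescence after 30 min at room temperature.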
# [4] = qHTS assay for identifying genotoxic compounds that show differential cytotoxicity against isogenic chicken DT40 cell lines with known DNA damage response pathways - Rev3 mutant cell line (AID 743014); conditions: chicken DT40 Rev3-/- viability, CellTiter-Glo, 40 h; activity, negative = cytotoxicity: at 68.4 µM (top of the series) unless noted; note: % is set by controls: 0 for no effect and ±100 for the full control effect; nearly all actives have a fitted effect of over 55% in size
# [5] = qHTS assay to identify small molecule antagonists of the androgen receptor (AR) signaling pathway using the MDA cell line - cell viability counter screen (AID 743041; note: % is set by controls: 0 for no effect and ±100 for the full control effect; nearly all actives have a fitted effect of over 45% in size); conditions: MDA-kb2 viability, CellTiter-Fluor, 16 h, cells co-treated with R1881 androgen agonist; viability change, negative = cytotoxic: at 70.3 µM (top of the series)
# Method in brief: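 Cells were plated at 3,000 per well and left 5 h. Compounds in DMSO were then pinned in, followed by R1881. After 16 h at 37C, CellTiter-Fluor fluorescence gave viability.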
# [6] = biological target: Estrogen receptor (Homo sapiens) (UniProt P03372); test: qHTS assay to identify small molecule agonists of the estrogen receptor alpha (ER-alpha) signaling pathway using the BG1 cell line (AID 743079); conditions: BG1Luc4E2 cells, ERE-luciferase agonist, 22 h; activation: at 70.3 µM (top of the series) unless noted; note: nearly all actives have a fitted effect of over 20% in size; note: potency is the fitted concentration of half-maximal effect
# [7] = qHTS assay to identify small molecule that activate the aryl hydrocarbon receptor (AhR) signaling pathway - cell viability counter screen (AID 743086);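 note: HepG2 liver cells carrying the AhR DRE luciferase reporter; % is set by controls: 0 for no effect and ±100 for the full control effect; nearly all actives have a fitted effect of over 45% in size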
# Method in brief: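 Cytotoxicity counter screen: CellTiter-Fluor signal (30 min, 37 C) in 4000 HepG2 cells/well carrying the DRE-luciferase reporter, following 24 h compound exposure at 37 C.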
# [8] = qHTS assay to identify small molecule antagonists of the thyroid receptor (TR) signaling pathway (AID 743065); note: nearly all actives have a fitted effect of over 55% in size; note: potency is the fitted concentration of half-maximal effect
# Method in brief: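 Antagonism measured as loss of luciferase signal in GH3 cells stably carrying a TRE-luciferase reporter, co-treated with compound and T3 (1 nM final) for 23.5 h at 37 C. Viability was read in the same well by CellTiter-Fluor.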
# [9] = qHTS assay to identify small molecule antagonists of the estrogen receptor alpha (ER-alpha) signaling pathway using the BG1 cell line - cell viability counter screen (AID 743081); conditions: BG1Luc4E2 viability, CellTiter-Fluor, 22 h; activity change, negative = cytotoxicity: at 70.3 µM (top of the series) unless noted;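 note: compound given together with 17beta-estradiol as the ER stimulus; potency is the fitted concentration of half-maximal effect; nearly all actives have a fitted effect of over 45% in size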
# [10] = biological target: Peroxisome proliferator-activated receptor gamma (Homo sapiens) (UniProt P37231); test: qHTS assay to identify small molecule agonists of the peroxisome proliferator-activated receptor gamma (PPARg) signaling pathway (AID 743094; active = well fitted activation curve with a large enough effect in the signal ratio in the repeat runs, not every such curve was filed as active; inconclusive = weak or mixed curves, or effect the other way; inactive = no such curve, though single readings can be large or run the other way; the % refers to the signal ratio; note: % is set by controls: 0 for no effect and ±100 for the full control effect); conditions: HEK293H PPARg-UAS-bla, beta-lactamase FRET ratio, 17 h; activation: at 57 µM (top of the series) unless noted
# Method in brief: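 GeneBLAzer PPARg UAS-bla HEK293H cells were plated, rested 5 h, then exposed to compounds for 17 h at 37C. Beta-lactamase activity was read by LiveBLAzer B/G FRET substrate fluorescence after 1 h at room temperature.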
# [11] = biological target: Glucocorticoid receptor (Homo sapiens) (UniProt P04150); test: qHTS assay to identify small molecule antagonists of the glucocorticoid receptor (GR) signaling pathway (AID 720692; active = well fitted inhibition curve with a large enough effect in the signal ratio in the repeat runs, not every such curve was filed as active; inconclusive = weak or mixed curves, or effect the other way; inactive = no such curve, though single readings can be large or run the other way; the % refers to the signal ratio; note: % is set by controls: 0 for no effect and ±100 for the full control effect); conditions: GR-bla HeLa, beta-lactamase FRET ratio, dexamethasone-stimulated, 18 h; activity change, negative = inhibition: at 58.5 µM (top of the series) unless noted
# Method in brief: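 GR-bla HeLa cells carrying a GRE-driven beta-lactamase reporter received compound after 4 h plating, then dexamethasone (5 nM final). After 18 h at 37C, the FRET substrate was loaded for 2 h at room temperature and fluorescence read.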
# [12] = qHTS assay to identify small molecule antagonists of the androgen receptor (AR) signaling pathway - cell viability counter screen (AID 743033; note: potency is the fitted concentration of half-maximal effect; nearly all actives have a fitted effect of over 45% in size); conditions: AR-bla HEK293 viability, CellTiter-Glo luminescence, 16 h; activity change, negative = cytotoxicity: at 58.5 µM (top of the series) unless noted
# [13] = qHTS assay to identify small molecule antagonists of the thyroid receptor (TR) signaling pathway - cell viability counter screen (AID 743064); conditions: GH3.TRE-Luc viability, CellTiter-Fluor, 24 h; activity change, negative = cytotoxic: at 70.3 µM (top of the series) unless noted; note: nearly all actives have a fitted effect of over 50% in size; note: potency is the fitted concentration of half-maximal effect
# Method in brief: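 GH3.TRE-Luc rat pituitary cells dosed after 4 hr plating, co-stimulated with T3 at 1 nM final, incubated 23.5 h at 37 C. Viability measured in the same wells by CellTiter-Fluor fluorescence after 30 min further at 37 C.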
# [14] = biological target: Estrogen receptor (Homo sapiens) (UniProt P03372); test: qHTS assay to identify small molecule antagonists of the estrogen receptor alpha (ER-alpha) signaling pathway (AID 743069; active = well fitted curve in the direction sought with a large enough effect in the signal ratio in the repeat runs, not every such curve was filed as active; inconclusive = weak or mixed curves, or effect the other way; inactive = no such curve, though single readings can be large or run the other way; the % refers to the signal ratio; note: % is set by controls: 0 for no effect and ±100 for the full control effect); conditions: HEK293 ER-alpha-UAS-bla, beta-lactamase ratio, antagonist mode; activity, negative = inhibition: at 69.4 µM (top of the series) unless noted
# Method in brief: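 ER-alpha-UAS-bla GripTite HEK293 line; 2% charcoal-stripped FBS overnight; plated, 4 hr 37C/5% CO2; cpd in DMSO + 17beta-estradiol, 18 hr 37C; LiveBLAzer B/G FRET substrate 2 hr RT; fluorescence intensity.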
# [15] = biological target: Estrogen receptor (Homo sapiens) (UniProt P03372); test: qHTS assay to identify small molecule agonists of the estrogen receptor alpha (ER-alpha) signaling pathway (AID 743075; calls by dose curve;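 note: HEK293 GripTite cells with ER-alpha and UAS-driven beta-lactamase reporter; potency is the fitted concentration of half-maximal effect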); conditions: HEK293 ER-alpha-UAS-bla, beta-lactamase FRET ratio, 18 h; activation: at 70.1 µM (top of the series)
# [16] = qHTS assay to identify small molecule antagonists of the estrogen receptor alpha (ER-alpha) signaling pathway using the BG1 cell line (AID 743080; calls by dose curve;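 note: BG1 cells stimulated with 17beta-estradiol alongside compound; % is set by controls: 0 for no effect and ±100 for the full control effect; nearly all actives have a fitted effect of over 25% in size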); conditions: BG1Luc4E2 ERE-luciferase antagonist mode, luminescence; activity change, negative = inhibition: at 70.3 µM (top of the series) unless noted
# Method in brief: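 BG1-Luc-4E2 cells (endogenous full-length ER-alpha, stable 4×ERE-luciferase) were starved 5 days in phenol-red-free medium with 10% charcoal-stripped FBS, plated 24 h, then given compound plus 17beta-estradiol for 21.5 h at 37 C; ONE-Glo luminescence read after 30 min.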
# Tags give direction and shape of the fitted curve or compound fluorescence and quenching.
# Sequence of UniProt P04150 (P04150 whole entry, looked up): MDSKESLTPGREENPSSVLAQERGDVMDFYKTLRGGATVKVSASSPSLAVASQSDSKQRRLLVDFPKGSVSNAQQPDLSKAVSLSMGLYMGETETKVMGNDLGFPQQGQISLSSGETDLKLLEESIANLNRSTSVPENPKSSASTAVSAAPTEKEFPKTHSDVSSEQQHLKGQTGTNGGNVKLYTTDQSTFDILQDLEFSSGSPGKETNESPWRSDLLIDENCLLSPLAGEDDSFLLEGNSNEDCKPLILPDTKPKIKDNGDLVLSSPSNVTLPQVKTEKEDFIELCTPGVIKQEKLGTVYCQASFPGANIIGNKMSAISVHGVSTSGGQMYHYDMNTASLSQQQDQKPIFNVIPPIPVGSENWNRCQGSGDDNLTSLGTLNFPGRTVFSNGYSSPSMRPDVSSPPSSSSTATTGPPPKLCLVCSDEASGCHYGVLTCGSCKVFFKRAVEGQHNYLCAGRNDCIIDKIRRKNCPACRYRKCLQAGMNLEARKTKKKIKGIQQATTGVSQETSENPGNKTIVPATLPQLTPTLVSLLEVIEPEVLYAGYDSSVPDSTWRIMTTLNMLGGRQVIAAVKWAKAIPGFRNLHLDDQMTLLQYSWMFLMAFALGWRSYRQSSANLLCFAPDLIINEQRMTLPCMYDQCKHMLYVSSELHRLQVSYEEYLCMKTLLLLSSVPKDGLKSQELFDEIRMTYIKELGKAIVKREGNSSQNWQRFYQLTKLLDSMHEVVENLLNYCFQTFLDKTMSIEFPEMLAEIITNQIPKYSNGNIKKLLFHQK
# Sequence of UniProt P03372 (P03372 whole entry, looked up): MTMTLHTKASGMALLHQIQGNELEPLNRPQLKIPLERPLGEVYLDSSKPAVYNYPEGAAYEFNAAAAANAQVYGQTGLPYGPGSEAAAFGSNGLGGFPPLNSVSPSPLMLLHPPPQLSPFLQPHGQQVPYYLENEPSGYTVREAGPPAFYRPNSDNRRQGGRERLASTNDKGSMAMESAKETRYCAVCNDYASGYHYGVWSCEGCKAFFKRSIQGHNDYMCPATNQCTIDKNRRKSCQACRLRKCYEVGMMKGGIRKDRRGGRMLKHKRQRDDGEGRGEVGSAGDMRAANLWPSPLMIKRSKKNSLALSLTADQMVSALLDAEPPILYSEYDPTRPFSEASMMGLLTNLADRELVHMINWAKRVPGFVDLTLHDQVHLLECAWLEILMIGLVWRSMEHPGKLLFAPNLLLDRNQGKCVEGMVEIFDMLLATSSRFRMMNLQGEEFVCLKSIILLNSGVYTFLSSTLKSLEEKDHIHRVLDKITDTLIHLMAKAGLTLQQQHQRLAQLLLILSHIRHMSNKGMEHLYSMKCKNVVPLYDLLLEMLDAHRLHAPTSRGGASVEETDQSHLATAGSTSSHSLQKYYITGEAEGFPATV
# Sequence of UniProt P37231 (P37231 whole entry, looked up): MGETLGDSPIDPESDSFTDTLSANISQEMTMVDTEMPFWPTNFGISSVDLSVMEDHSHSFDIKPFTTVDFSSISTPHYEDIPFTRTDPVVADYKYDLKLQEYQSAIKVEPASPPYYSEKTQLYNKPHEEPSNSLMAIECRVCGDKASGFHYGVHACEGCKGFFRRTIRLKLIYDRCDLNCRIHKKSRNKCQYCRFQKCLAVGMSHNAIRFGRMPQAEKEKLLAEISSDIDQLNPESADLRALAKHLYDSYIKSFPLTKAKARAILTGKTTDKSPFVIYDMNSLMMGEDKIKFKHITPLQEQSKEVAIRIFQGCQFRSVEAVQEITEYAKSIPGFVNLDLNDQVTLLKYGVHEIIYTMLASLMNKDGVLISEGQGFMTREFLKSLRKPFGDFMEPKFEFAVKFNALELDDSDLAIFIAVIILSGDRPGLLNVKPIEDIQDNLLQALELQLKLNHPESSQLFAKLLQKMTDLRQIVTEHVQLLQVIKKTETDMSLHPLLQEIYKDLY
structure (smiles),measurement,setting,value
S=C=Nc1ccc(N=C=S)cc1,Potency,[1],"inconclusive: 1.19 µM [activator, single point]"
same,Potency,[2],"inconclusive: 5.96 µM [inhibitor, partial curve, poor fit]"
same,Potency,[3],inactive
same,Potency,[4],inactive
same,"viability change, negative = cytotoxic",[5],inconclusive: 30.5%
same,Potency,[6],active: 1.06 µM
same,Potency,[7],inactive
CCCCC/C=C\CCC(=O)N[C@H]1[C@H](Oc2c3cc4cc2Oc2ccc(cc2Cl)[C@@H](O[C@@H]2O[C@H](CO)[C@@H](O)[C@H](O)[C@H]2NC(C)=O)[C@@H]2NC(=O)[C@H](NC(=O)[C@@H]4NC(=O)[C@H]4NC(=O)[C@@H](Cc5ccc(c(Cl)c5)O3)NC(=O)[C@H](N)c3ccc(O)c(c3)Oc3cc(O)cc4c3)c3ccc(O)c(c3)-c3c(O[C@H]4O[C@H](CO)[C@@H](O)[C@H](O)[C@@H]4O)cc(O)cc3[C@@H](C(=O)O)NC2=O)O[C@H](CO)[C@@H](O)[C@@H]1O,Potency,[1],inconclusive: 33.5 µM [activator]
same,Potency,[2],inconclusive: 23.7 µM [partial curve]
same,Potency,[3],inactive
same,Potency,[8],"inconclusive: 0.473 µM [inhibitor, full curve]"
same,Potency,[9],"inconclusive: 33.5 µM [cytotoxic, single point]"
same,Potency,[10],inactive
CCCCCCCCCCCCCCCC(=O)OCC(COC(=O)CCCCCCCCCCCCCCC)OC(=O)CCCCCCCCCCCCCCC,Potency,[1],"inconclusive: 7.5 µM [activator, single point]"
same,Potency,[2],inactive
same,Potency,[11],inactive
same,Potency,[3],inactive
same,Potency,[12],"inconclusive: 10.7 µM [rising, single point]"
same,Potency,[13],"inconclusive: 18.8 µM [rising, partial curve, poor fit]"
same,Potency,[8],inactive
same,activation,[6],inconclusive: 20.1% [phenotype inactive]
CCCN(CC)C(CC)C(=O)Nc1c(C)cccc1C (centres undefined),Potency,[1],inactive
same,"ratio activity, negative = MMP loss",[2],inconclusive: -0.153%
same,Potency,[11],inactive
same,Potency,[6],inactive
same,Potency,[9],"inconclusive: 33.5 µM [rising, single point]"
CCCCC[C@H](O)/C=C/[C@@H]1[C@H]2C/C(=C/CCCC(=O)O)O[C@H]2C[C@H]1O,Potency,[1],"inconclusive: 1.19 µM [activator, single point]"
same,Potency,[2],inactive
same,Potency,[4],inactive
same,Potency,[13],inactive
same,"activity, negative = inhibition",[14],inconclusive: 40.2%
same,Potency,[15],"inconclusive: 19 µM [activator, partial curve]"
same,"activity change, negative = inhibition",[16],inconclusive: 23.9%
same,Potency,[9],"inconclusive: 1.68 µM [rising, full curve]"
Cc1ncc(C[n+]2csc(CCOP(=O)(O)O)c2C)c(N)n1,Potency,[1],inactive
same,Potency,[2],inactive
same,"activity change, negative = inhibition",[11],inconclusive: -1.69%
same,Potency,[13],inactive
same,Potency,[10],inactive
